Measured values as given in publication PMC8313700.
Results are given in words; binding and its absence hold for the method and conditions named. In cells and extracts the contact can be indirect. Some entries that bind do so weakly or less than the wild type. For some assays here: Tags and fused reporters may be left off the sequences shown. Values belong to the molecule of their own block, whether it stands above or below them.

Chains of the proteins cited; added tags and fusions are not shown. Lines headed by an entry give the natural chain unless they say otherwise; changes in a name come on top. Residues count along the entry.
UniProt P06748: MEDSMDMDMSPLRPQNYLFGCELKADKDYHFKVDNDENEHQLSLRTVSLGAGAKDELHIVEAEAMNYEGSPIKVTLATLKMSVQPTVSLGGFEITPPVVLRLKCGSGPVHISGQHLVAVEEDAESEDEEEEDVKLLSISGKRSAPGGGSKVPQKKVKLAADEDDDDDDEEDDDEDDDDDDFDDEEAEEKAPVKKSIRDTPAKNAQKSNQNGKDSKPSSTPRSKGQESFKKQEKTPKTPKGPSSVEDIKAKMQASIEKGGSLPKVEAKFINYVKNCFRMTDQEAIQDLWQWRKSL
GST-NPM1 (aa1-119), N-terminal region: residues 1-119 of P06748
GST-NPM1 (aa120-188): residues 120-188 of P06748
GST-NPM1 (aa189-294): residues 189-294 of P06748

Key:
[1] = biological target: T1, GST-HO-1_(1-65) (UniProt P09601); assay: pull-down; GST-HO-1 fragments on GST Tag Immunomagnetic Beads; NPM1 protein overexpressed by plasmid incubated with the beads 1 h at 37 °C; Western blot; only the target purified
T1 sequence: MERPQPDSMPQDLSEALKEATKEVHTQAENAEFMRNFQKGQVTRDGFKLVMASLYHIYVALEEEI

[2] = biological target: T2, GST-HO-1_(131-266) (UniProt P09601); assay: as above
T2 sequence: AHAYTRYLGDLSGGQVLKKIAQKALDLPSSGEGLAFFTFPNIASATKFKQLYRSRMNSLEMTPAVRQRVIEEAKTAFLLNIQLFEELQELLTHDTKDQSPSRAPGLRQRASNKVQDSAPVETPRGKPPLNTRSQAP

[3] = biological target: T3, GST-HO-1_(66-130) (UniProt P09601); assay: as above
T3 sequence: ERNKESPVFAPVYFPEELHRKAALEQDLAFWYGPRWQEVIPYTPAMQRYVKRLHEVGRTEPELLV

[4] = biological target: T4, Heme oxygenase-1 (HO-1), endogenous, induced by Hemin in HUVECs (human (endogenous in HUVECs)) (UniProt P09601); assay: co-IP; HUVECs transfected with ΔHO-1 or treated with Hemin; precipitated by primary antibody (anti-HO-1 or anti-NPM1 listed), Western blot
T4 sequence: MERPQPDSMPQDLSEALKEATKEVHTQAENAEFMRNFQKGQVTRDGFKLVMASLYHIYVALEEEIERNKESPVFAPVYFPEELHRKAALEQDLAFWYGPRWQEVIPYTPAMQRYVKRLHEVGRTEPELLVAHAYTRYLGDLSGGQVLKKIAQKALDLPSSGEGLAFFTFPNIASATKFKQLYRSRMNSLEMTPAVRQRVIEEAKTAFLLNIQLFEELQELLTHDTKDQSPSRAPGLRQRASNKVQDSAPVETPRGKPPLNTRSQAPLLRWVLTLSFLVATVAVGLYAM

[5] = biological target: T5, ΔHO-1, truncated heme oxygenase-1 without transmembrane segment (aa1-266), with a Flag tag (UniProt P09601); assay: as above
T5 sequence: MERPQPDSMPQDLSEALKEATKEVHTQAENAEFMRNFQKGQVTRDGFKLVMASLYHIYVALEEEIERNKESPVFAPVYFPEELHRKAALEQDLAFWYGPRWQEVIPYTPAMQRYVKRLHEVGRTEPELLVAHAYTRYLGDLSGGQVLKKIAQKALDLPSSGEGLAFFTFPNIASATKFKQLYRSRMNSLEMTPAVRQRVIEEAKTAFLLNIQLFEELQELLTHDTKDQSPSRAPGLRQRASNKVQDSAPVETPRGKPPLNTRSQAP

[6] = biological target: T4, Heme oxygenase-1 (HO-1), endogenous, induced by Hemin in HUVECs (human (endogenous in HUVECs)); assay: condition: only untreated cells (no Hemin, no ΔHO-1); co-IP; untreated (control) HUVECs, no ΔHO-1 and no Hemin; precipitated by primary antibody, Western blot
[7] = biological target: GST-NPM1 (aa1-119), N-terminal region (UniProt P06748); assay: pull-down; GST-NPM1 fusion proteins on GST Tag Immunomagnetic Beads; HO-1 protein induced by Hemin incubated with the beads 1 h at 37 °C; Western blot; only the target purified
[8] = biological target: GST-NPM1 (aa120-188) (UniProt P06748); assay: as above
[9] = biological target: GST-NPM1 (aa189-294) (UniProt P06748); assay: as above
[10] = biological target: GST-NPM1 wild type (UniProt P06748); assay: as above
[11] = biological target: GST-NPM1_(C275S) (UniProt P06748); assay: as above

binding [1]: no binding | binding [2]: binds | binding [3]: no binding
Molecule: NPM1 wild type (with a Flag tag), overexpressed by plasmid (from UniProt P06748 1-294)

binding [4]: binds | binding [5]: binds | binding [6]: no binding
Molecule: Nucleophosmin (NPM1), endogenous in HUVECs (from UniProt P06748 1-294)

binding [7]: binds | binding [8]: no binding | binding [9]: no binding | binding [10]: binds | binding [11]: binds
B1: Heme oxygenase-1 (HO-1), endogenous, induced by Hemin in HUVECs (protein, UniProt P09601 1-288)
chain: MERPQPDSMPQDLSEALKEATKEVHTQAENAEFMRNFQKGQVTRDGFKLVMASLYHIYVALEEEIERNKESPVFAPVYFPEELHRKAALEQDLAFWYGPRWQEVIPYTPAMQRYVKRLHEVGRTEPELLVAHAYTRYLGDLSGGQVLKKIAQKALDLPSSGEGLAFFTFPNIASATKFKQLYRSRMNSLEMTPAVRQRVIEEAKTAFLLNIQLFEELQELLTHDTKDQSPSRAPGLRQRASNKVQDSAPVETPRGKPPLNTRSQAPLLRWVLTLSFLVATVAVGLYAM
